Reference: PubChem BioAssay AID887 (National Center for Advancing Translational Sciences (NCATS), 2007)
Several values for one entry are separate records, joined by “and”; a condition that tells them apart may be missing. Equal entries are not always repeated. The whole screen tested about 74,000 compounds, of which about 1,100 (1.5%) were called active. Inconclusive results, whose numbers are uncertain, are shown with a selection of clear calls. Calls follow the shape of the dose curve; as a rule, active = well fitted inhibition curve with a large enough effect; inconclusive = small, poorly fitted or top-dose-only effect; inactive = no such curve, though single readings can be large or run the other way. No potency is given beside an inconclusive call; the fits are too rough. Some structures have more than one record in an assay (separate samples or runs), and their calls can disagree.

Biological target: Polyunsaturated fatty acid lipoxygenase ALOX15 (Homo sapiens) (UniProt P16050)
Chain of UniProt P16050 (P16050 whole entry, looked up): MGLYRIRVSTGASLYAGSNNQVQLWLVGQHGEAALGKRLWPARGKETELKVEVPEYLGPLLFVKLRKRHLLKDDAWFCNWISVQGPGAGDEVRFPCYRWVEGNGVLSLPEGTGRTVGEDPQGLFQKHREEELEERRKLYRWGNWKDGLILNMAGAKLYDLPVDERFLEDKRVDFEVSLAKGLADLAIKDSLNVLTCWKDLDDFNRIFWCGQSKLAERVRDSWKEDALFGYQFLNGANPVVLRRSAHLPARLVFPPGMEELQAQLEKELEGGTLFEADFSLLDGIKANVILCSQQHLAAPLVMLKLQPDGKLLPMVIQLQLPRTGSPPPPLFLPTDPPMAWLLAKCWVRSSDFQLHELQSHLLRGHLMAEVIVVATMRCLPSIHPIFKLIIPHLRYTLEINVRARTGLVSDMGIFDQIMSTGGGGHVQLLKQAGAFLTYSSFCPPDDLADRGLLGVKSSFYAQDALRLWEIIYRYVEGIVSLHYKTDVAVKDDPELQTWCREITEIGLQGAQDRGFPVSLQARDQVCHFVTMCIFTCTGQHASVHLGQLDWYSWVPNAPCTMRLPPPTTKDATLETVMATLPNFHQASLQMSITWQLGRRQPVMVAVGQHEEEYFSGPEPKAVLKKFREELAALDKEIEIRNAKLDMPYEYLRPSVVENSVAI
Assay: qHTS Assay for Inhibitors of 15-hLO (15-human lipoxygenase); also: nearly all actives have a fitted effect of over 55% in size
Conditions: purified 15hLO-1, xylenol orange hydroperoxide absorbance; activity change, negative = inhibition: at 57.1 µM (top of the series) unless noted
How it was run: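 Purified human 15hLO-1 (40 nM final) in 25 mM Hepes pH 7.5, 0.01% Triton X-100 was preincubated with compound 15 min at room temperature, then reacted 6 min with 50 uM arachidonic acid; hydroperoxide detected by Fe-XO, 573/405 nm absorbance ratio.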
% is scaled to controls: 0 for no effect and ±100 for the full control effect; potency is read from the fitted curve at half-maximal effect; tags tell the direction and shape of the fitted curve.

Row | Structure (SMILES) | Potency | activity change, negative = inhibition
1 | c1ccc2c(c1)nc1n2C2(N3CCOCC3)CCCC2C1N1CCOCC1 (centres undefined) | inconclusive [inhibitor, single point] | 
2 | CC(=O)N1CCC2(CC1)CCN(c1cccc(-c3ccccc3)c1)CC2 | inactive | 
3 | CN(CCc1ccc(Cl)c(Cl)c1)CCN1CCCC1 | inactive | 
4 | CCCC(c1nnnn1Cc1ccco1)N1CCN(c2cc(Cl)ccc2C)CC1 (centres undefined) | inconclusive [inhibitor, partial curve] | 
5 | COc1ccc(S(=O)(=O)N2CCN(c3ccccn3)CC2)cc1OC | inactive | 
6 | c1ccc(-c2nn3c(-c4ccncc4)nnc3s2)nc1 | inconclusive [inhibitor, partial curve] | 
7 | CN(C)c1ncc2nc(CCc3ccccc3)c(=O)n(Cc3cccs3)c2n1 | inconclusive [inhibitor, single point] | 
8 | Cc1ccc(O)c(N)c1 | inconclusive [inhibitor, full curve] | 
9 | N#CC1=C(N)Oc2n[nH]c(-c3cccs3)c2C1c1ccco1 (centres undefined) | inactive | 
10 | Cc1ccc(OCC(=O)Nc2ccc(N3CCCC3)cc2)cc1C | active: 5.01 µM | 
11 | CC(=O)ON(C(C)=O)S(=O)(=O)c1ccc(Cl)cc1 | inconclusive [inhibitor, single point] | 
12 | O=C(NCc1ccco1)Nc1ccc(Br)cc1Cl | inconclusive [inhibitor, partial curve] | 
13 | Cc1ccc(N(C(C)C(=O)Nc2ccc(S(=O)(=O)N3CCOCC3)cc2)S(C)(=O)=O)cc1 (centres undefined) | inactive | 
14 | O=C(NCCN1CCOCC1)c1cc2sccc2n1Cc1ccc(Cl)cc1 | inconclusive [inhibitor, partial curve] | 
15 | CC(=O)Oc1cccc(N2C(=O)CC(Nc3ccc(N4CCOCC4)cc3)C2=O)c1 (centres undefined) | inconclusive [inhibitor, full curve] | 
16 | CCCn1c(-c2ccc(F)cc2)nc2c(NCC(C)(C)CN(C)C)nc(C)nc21 | active: 12.6 µM | 
17 | Cc1cc(N)c2ccccc2[n+]1CCCCCCCCCCCCCC[n+]1c(C)cc(N)c2ccccc21 | inconclusive [inhibitor, single point] | 
18 | NC(=O)c1cc(Br)cc2c3c([nH]c12)CCCC3 | active: 7.94 µM | 
19 | C=CC(=O)c1ccc2ccccc2c1 | active: 12.6 µM | 
20 | CN1CCc2c(sc3c2C(=O)NC(c2cccs2)N3)C1 (centres undefined) | active: 3.16 µM | 
21 | CN1CCc2c(sc3c2C(=O)NC(c2ccc(-c4cccc(Cl)c4)o2)N3)C1 (centres undefined) | active: 2.51 µM | 
22 | N#CC(=C(/N)Sc1ccccc1N)/C(C#N)=C(/N)Sc1ccccc1N | inactive and active: 12.6 µM | 
23 | Cc1c(C)c2c(c(C)c1O)CC[C@@](C)(CN1CCN(c3cc(N4CCCC4)nc(N4CCCC4)n3)CC1)O2 | inconclusive [inhibitor, partial curve] | 
24 | N#Cc1cccc(-c2nccc(NCc3cccnc3)n2)c1 | inconclusive [inhibitor, partial curve] | 
25 | Cc1ccc(/C=C/C2=Cc3c(sc(NC(=O)CSc4n[nH]c(N)n4)c3C#N)C(C)(C)C2)o1 | active: 12.6 µM | 
26 | CCCCC(CC)CNC(=O)c1ccc2c(c1)OCO2 (centres undefined) |  | inactive: -1.25% [at 11.4 µM]
27 | CSC1=N/C(=C\C=C\c2cccs2)C(=O)S1 | inconclusive [inhibitor, single point] | 

Row | Structure (SMILES) | Potency | activity change, negative = inhibition
28 | NS(=O)(=O)c1cccc2c1c([N+](=O)[O-])cc1nc(O)c(O)nc12 | inconclusive [inhibitor, partial curve, poor fit] | 
29 | O=C(c1ccncc1)N1CCC[C@@]2(CCN(c3cccc(-c4ccccc4)c3)C2)C1 | inconclusive [inhibitor, single point] | 
30 | N#CC1=C(N)Oc2n[nH]c(-c3ccncc3)c2C1c1ccsc1 (centres undefined) | inconclusive [inhibitor, single point] | 
31 | O=C(CSc1n[nH]c(-c2ccccc2)n1)c1ccc(O)c(O)c1 | active: 5.01 µM | 
32 | O=c1[nH]c2c(s1)C(c1ccco1)C1C3CCC(C3)C1S2 (centres undefined) | inactive | 
33 | Cc1ccc(NCc2nnc(SCC(=O)c3ccccc3)n2Cc2ccco2)c(C)c1 | inconclusive [inhibitor, partial curve] | 
34 | CC(=O)C1=C(C)NC(SCC(=O)c2ccc(Cl)c(Cl)c2)=C(C#N)C1c1ccco1 (centres undefined) | active: 12.6 µM | 
35 | O=c1c2ccccc2sn1-c1ccc(S(=O)(=O)N2CCCCC2)cc1 | inconclusive [inhibitor, full curve] | 
36 | CCOCC(=O)Nc1sc2c(c1C(=O)OCC)CCCC2 | inconclusive [inhibitor, single point] | 
37 | CCCCN(C(=O)c1ccco1)c1nnc(-c2cc(OC)c(OC)c(OC)c2)s1 | inactive | 
38 | O=C1Nc2cccnc2Sc2ccccc21 | active: 15.8 µM | 
39 | CN(C)c1ccc2nc3ccc(=[N+](C)C)cc-3sc2c1 | inconclusive [inhibitor, full curve, poor fit] | 
40 | Cc1c(O)ccc2c1OCO2 |  | inactive: -3.38% [at 11.4 µM]
41 | CN(C)c1ccc(C(CC(=O)O)NC(=O)c2ccc(Cl)cc2)cc1 (centres undefined) | inconclusive [inhibitor, single point] | 
42 | COC(c1ccccc1Br)C(C)/C=C/CCO (centres undefined) | active: 1.58 µM | 
43 | CCN(CC(=O)Nc1ccc2c(c1)OCCO2)Cc1cc(=O)oc2c(C)c(C)ccc12 | inconclusive [inhibitor, single point] | 
44 | CCOc1ccc2[nH]c(=O)c(C(c3nnnn3C3CCCCC3)N3CCN(C)CC3)cc2c1 (centres undefined) | inactive | 
45 | c1ccc(-c2csc(N3CCCCCC3)n2)cc1 | inconclusive [inhibitor, partial curve] | 
46 | N#CC1=C(N)Oc2cc(O)ccc2C1c1cccs1 (centres undefined) | inconclusive [inhibitor, single point] | 
47 | COC(=O)c1ccc(CSc2nnc(-c3ccncc3)n2Cc2ccccc2)o1 | inactive | 
48 | CCCCCCC(=O)N(O)C1CC(=O)N(c2ccc(Br)cc2)C1=O (centres undefined) | inconclusive [inhibitor, partial curve] | 
49 | CCCCCC/C=C\CCCCCCCc1cccc(O)c1C(=O)O | active: 1.58 µM | 
50 | N#Cc1cnc(SCC(=O)c2ccccc2)nc1N | inconclusive [inhibitor, partial curve] | 
51 | Cc1nc(N2CCOCC2)c2nc(-c3ccccc3)n(CCN(C)C)c2n1 | active: 12.6 µM | 
52 | Cc1c(C)n(C)c2ccc(C(=O)NCc3cccs3)cc12 | active: 10 µM | 
53 | C=CC(C)(O)CC/C=C(\C)CCC=C(C)C (centres undefined) | active: 12.6 µM | 
54 | CC1(N)CCC(C(C)(C)N)CC1 (centres undefined) | inactive | 

Row | Structure (SMILES) | Potency | activity change, negative = inhibition
55 | NS(=O)(=O)c1ccc(N=Nc2ccc[nH]c2=O)cc1 | active: 3.16 µM | 
56 | Cc1cccc(CNc2nc(-c3cccc(NS(C)(=O)=O)c3)nc3ccccc23)c1 | inactive | 
57 | Cc1cc(-c2nnco2)c(C)n1-c1ccccc1 | inactive | 
58 | CCOc1ccc2[nH]c(=O)c(CN(Cc3ccc(C)cc3)C(=O)N3CCCC3)cc2c1 | inactive | 
59 | Cc1ccsc1/C=N/n1cnc2sc(C)c(C)c2c1=O | inactive | 
60 | CCCc1ncc(C(=O)c2ccc(OC)cc2)n1C | active: 10 µM | 
61 | CSc1ccccc1NC(=O)c1onc(C)c1Cl | inconclusive [inhibitor, partial curve] | 
62 | COC(=O)Oc1nsnc1N1CCOCC1 | inconclusive [inhibitor, full curve, poor fit] | 
63 | O=C(CSc1nnc(COc2ccccc2)n1Cc1ccco1)c1ccc(F)cc1 | inconclusive [inhibitor, single point] | 
64 | COc1ccc(N2CCN(c3nc(=S)n(-c4ccccc4)c(C)c3C(C)=O)CC2)cc1 | active: 15.8 µM | 
65 | COc1ccc2[nH]c(=O)c(CN(Cc3nnnn3CCc3ccccc3)CC3CCCO3)cc2c1 (centres undefined) | active: 1.26 µM | 
66 | Cc1ccc(Nc2nc(N)nc(CN3CCN(Cc4ccc5c(c4)OCO5)CC3)n2)cc1 | inconclusive [inhibitor, single point] | 
67 | CCOC(=O)CSc1cc(=O)n(C)c2cc(Cl)ccc12 | active: 12.6 µM | 
68 | O=c1[nH]c2cc3c(cc2cc1CN(Cc1ccccc1)Cc1nnnn1Cc1ccco1)OCCO3 | active: 31.6 µM | 
69 | Nc1nnc(C(=O)c2ccccc2N)s1 | inconclusive [inhibitor, single point] | 
70 | COc1ccc(N2CCN(C(=O)c3ccc(NS(=O)(=O)c4ccccc4)cc3)CC2)cc1 | active: 5.01 µM | 
71 | COc1ccc(C(=O)NCC2OCCc3ccccc32)c(O)c1 (centres undefined) | inconclusive [inhibitor, single point] | 
72 | O=C(C1CCCN1S(=O)(=O)c1cccc2cccnc12)N1CCc2ccccc2C1 (centres undefined) | active: 25.1 µM | 
73 | COC(=O)CC(=O)CSc1nc2c(cc1C#N)CCC2 | inactive | 
74 | CCOc1ccc(C(=O)N2CCN(c3ccccc3)CC2)cc1OCC | inconclusive [inhibitor, single point] | 
75 | CCOCCc1nnc(NC(=O)c2cc(OC)c(OC)c(OC)c2)s1 | inactive | 
76 | COc1cc(/C=C(\C#N)C(N)=O)cc(CSc2nc3ccccc3s2)c1O | inactive | 
77 | Cc1nc(N2CCN(c3ccccc3)CC2)c2c3c(sc2n1)CCC3 | inconclusive [inhibitor, single point] | 
78 | CCCCn1c(SCC(=O)Nc2ccc(OC)cc2)nc2ccc(N3CCOCC3)cc2c1=O | inconclusive [inhibitor, partial curve] | 
79 | O=C(O)CCCSc1nc2ccccc2s1 |  | inactive: 4.23% [at 11.4 µM]
